From publication PMC3681934
Results are given in words; binding and its absence hold for the method and conditions named. Binding seen in cells or lysates may run through a third protein. Some entries that bind do so weakly or less than the wild type. Tags and fused reporters may be left off the sequences shown. Each block holds one molecule with its values, some of them ahead of it.

Sequences of proteins named here, by UniProt entry; tags and fusion partners are left off.
UniProt P16054: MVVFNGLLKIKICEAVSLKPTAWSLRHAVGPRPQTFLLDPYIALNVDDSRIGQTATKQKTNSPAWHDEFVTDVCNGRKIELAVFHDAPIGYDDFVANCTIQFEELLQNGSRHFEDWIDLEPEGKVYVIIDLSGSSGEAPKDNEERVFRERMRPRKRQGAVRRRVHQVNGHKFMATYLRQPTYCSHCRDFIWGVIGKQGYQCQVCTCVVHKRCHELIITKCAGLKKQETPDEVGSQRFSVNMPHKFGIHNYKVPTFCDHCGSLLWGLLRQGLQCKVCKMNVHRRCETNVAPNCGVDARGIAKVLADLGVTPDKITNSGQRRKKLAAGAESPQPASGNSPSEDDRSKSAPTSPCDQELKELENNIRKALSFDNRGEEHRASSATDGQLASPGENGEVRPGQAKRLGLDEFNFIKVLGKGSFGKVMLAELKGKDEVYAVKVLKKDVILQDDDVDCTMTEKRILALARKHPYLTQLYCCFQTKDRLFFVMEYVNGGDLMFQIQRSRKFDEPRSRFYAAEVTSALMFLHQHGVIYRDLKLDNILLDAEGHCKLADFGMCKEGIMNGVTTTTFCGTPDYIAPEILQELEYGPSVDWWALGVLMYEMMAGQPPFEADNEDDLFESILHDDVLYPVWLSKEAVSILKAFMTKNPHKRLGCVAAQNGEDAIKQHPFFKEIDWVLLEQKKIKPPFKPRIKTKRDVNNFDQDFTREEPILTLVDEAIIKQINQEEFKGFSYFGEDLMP

What was measured:
[1] = molecular target: T1, MBP-fusion protein with the TIR domain of IL1RAPL1 (mouse) (UniProt P59823); assay: pull-down; lysates of transfected HEK 293T cells incubated with amylose resins coupled to purified MBP-fusion proteins of IL1RAPL1 domains; immunoblotting with anti-FLAG or anti-Myc antibody; only the target purified
T1 sequence: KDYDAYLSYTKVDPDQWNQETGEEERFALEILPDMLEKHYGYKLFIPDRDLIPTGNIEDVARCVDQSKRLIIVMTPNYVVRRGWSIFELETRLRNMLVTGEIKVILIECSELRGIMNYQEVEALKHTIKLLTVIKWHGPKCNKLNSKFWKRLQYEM

[2] = molecular target: T2, YFP-IL1RAPL1 (mouse) (UniProt P59823); assay: co-IP; HEK 293T cells co-transfected; lysed in TNE buffer (50 mM Tris-HCl pH 7.5, 1% Nonidet P-40, 150 mM NaCl, 5 mM EDTA); immunoprecipitation with anti-GFP or anti-FLAG antibody, western blotting with anti-FLAG or anti-Myc antibody
T2 sequence: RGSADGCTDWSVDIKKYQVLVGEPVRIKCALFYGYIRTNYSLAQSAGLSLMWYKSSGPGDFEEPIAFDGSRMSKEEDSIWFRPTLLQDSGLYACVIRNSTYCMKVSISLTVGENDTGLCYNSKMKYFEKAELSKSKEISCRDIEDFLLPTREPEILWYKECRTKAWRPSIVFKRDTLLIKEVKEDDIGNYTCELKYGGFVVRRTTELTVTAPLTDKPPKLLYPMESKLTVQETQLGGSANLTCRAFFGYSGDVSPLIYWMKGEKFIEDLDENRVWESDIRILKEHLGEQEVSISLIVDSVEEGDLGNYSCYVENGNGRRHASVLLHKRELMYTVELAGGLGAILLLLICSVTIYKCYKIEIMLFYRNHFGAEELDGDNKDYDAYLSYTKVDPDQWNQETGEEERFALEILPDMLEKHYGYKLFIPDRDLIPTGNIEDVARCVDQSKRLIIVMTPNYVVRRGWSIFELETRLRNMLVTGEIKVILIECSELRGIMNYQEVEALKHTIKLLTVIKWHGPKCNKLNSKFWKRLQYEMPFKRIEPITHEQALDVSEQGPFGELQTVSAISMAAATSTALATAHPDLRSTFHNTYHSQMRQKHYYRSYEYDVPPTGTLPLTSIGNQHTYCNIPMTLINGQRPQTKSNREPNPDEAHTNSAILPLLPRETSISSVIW

[3] = molecular target: T3, FLAG-IL1RAPL1 (mouse) (UniProt P59823); assay: as above
T3 sequence: T2 sequence

- binding [1]: binds
- binding [2]: binds
Molecule: FLAG-PKCε (from UniProt P16054 1-737) (enzyme)

- binding [3]: binds
B1: myc-SNIP (protein, UniProt Q9QWI6 1-1250)
chain: MQPWQCLRRFALAWWERTAEGRARSPREEVGPRDPGGRGEPDPERSSPPMLSADDAEYPREYRTLGGGGGGGSGGRRFSNVGLVHTSERRHTVIAAQSLEALSGLQKADADRKRDAFMDHLKSKYPQHALALRGQQDRMREQVGGWTVDPVCLLSSLCSHLHGDSTPSGAGQPAQQPNYWSFKTRSSRHTQGAQPGLADQAAKLSYASAESLETMSEAELPLGFSRMNRFRQSLPLSRSASQTKLRSPGVLFLQFGEETRRVHITHEVSSLDTLHALIAHMFPQKLTMGMLKSPNTAILIKDEARNVFYELEDVRDIQDRSIIKIYRKEPLYAAFPGSHLTNGDLRREMVYASRESSPTRRLNNLSPASHLASSSPPPGLPSGLPSGLPSGSPSRSRLSYAGGRPPSYAGSPVHHAAERLGGAPTGQGVSPSPSAILERRDVKPDEDLAGKAGGMVLVKGEGLYADPYGLLHEGRLSLAAAAETHSHTRARAACTSGVPCALSAPTPLPRCSPTWRTRCTRRALAALYGDGYGFRLPPSSPQKLADVSAPSGGPPPPHSPYSGPPSRGSPVRQSFRKDSGSSSVFAESPGGKARSTGSASTAGAPPSELFPGPGERSLVGFGPPVPAKDTETRERMEAMEKQIASLTGLVQSALLRGSEPETPSEKVEGSNGAATPSAPVCGSGSKSSGATPVSGPPPPSASSTPAGQPTAVSRLQMQLHLRGLQNSASDLRGQLQQLRNVQLQNQESVRALLKPTEADVSMRVSEAARRQEDPLQRQRTLVEEERLRYLNDEELITQQLNDLEKSVEKIQRDVAHNHRLMPGPELEEKALVLKQLGETLTELKAHFPGLQSKMRVVLRVEVEAVKFLKEEPQRLDGLLKRCRGVTDTLAQIRRQVDEGMWPPPNNLLNQSPKKVAAETDFSKGLDFEIPPPSPPLNLHELSGPAEGTPLTPKSTNPTKCLDASSKRNTDKAVSVEAAERDWEEKRAALTQYSAKDINRLLEETQAELLKAIPDLDCASKTHPGPAPTPDHKPPKAPHGQKAAPRTEPSGRRGSDELTVPRYRTEKPSKSPPPPPPRRSFPSSHGLTTTRTGEVVVTSKKDSVFIKKAESEELEVQKPQVKLRRAVSEVVRPASTPPIMASAIKDEDDEERIIAELESGGSSVPPMKVVTPGASRLKAAQGPAGSPDKGKHGKQRTEYMRIQAQQQATKPSKEVSGPNETSSPGSEKPSGSRTSIPVLTSFGARNSSISF

- binding [2]: binds
B2: FLAG-Rasal1 (protein, UniProt Q9Z268 1-799)
chain: MAKSGSLSIRVVEGRALPAKDVSGSSDPYCLVKVDDQVVARTATIWRSLSPFWGEEYTVHLPLDFHHLAFYVLDEDTVGHDDIIGKISLSKEAITADPRGIDSWINLSRVDPDAEVQGEVCLDVKLLEDARGRCLRCHVRQARDLAPRDISGTSDPFARVFWGNHSLETSTIKKTRFPHWDEVLELREAPGTTSPLRVELWDWDMVGKNDFLGMVEFTPQTLQQKPPNGWFRLLPFPRAEDSGGSLGALRLKVRLTEDRVLPSQYYQPLMELLLESVQGPAEEDTTSPLALLEELASGDCRQDLATKLVKLFLGRGLAGPFLDYLTRREVARTNDPNTLFRSNSLASKSMEQFMKLVGMRYLHEVLRPVISRVFEEKKYMELDPCKMDLNRSRRISFKGTPTEEQVRETSLGLLTGYLGSVVDAIVSSTGRCPLALRLAFKQLQRCVEKRFSGIEHQDVKYLAISGFLFLRFFAPAILTPKLFDLRDQHADPQTSRSLLLLAKAVQSIGNLGQQLGQGKEQWLAPLHPFLLQSISRVRDFLDQLVDVDEDEEAGGPACALVQPSTIVREGFLLKRKEEPGGLATRFAFKKRYFRLSGRDLSYSKTPEWQVHTSIPLSCIRAVEHVDEGAFQLPHVMQVVTQDGAGTSHTTYLQCKNVNDLNQWLSALRKASAPNPGKLVACHPGAFRSGRWTCCLQAERSAAGCSRTHSAITLGDWSDPLDPDAEAQAVYRQLLLGRDQLRLKLLEDSSLDTEVDPGRDSSATDGPCAEVLAQQRAATTHLLQVLEDLEQAHEEFQKRG

- binding [3]: binds
B3: myc-PLCβ1 (enzyme, UniProt Q9Z1B3 1-1216)
chain: MAGAQPGVHALQLKPVCVSDSLKKGTKFVKWDDDSTIVTPIILRTDPQGFFFYWTDQNKETELLDLSLVKDARCGKHAKAPKDPKLRELLDVGNIGHLEQRMITVVYGPDLVNISHLNLVAFQEEVAKEWTNEVFSLATNLLAQNMSRDAFLEKAYTKLKLQVTPEGRIPLKNIYRLFSADRKRVETALEACSLPSSRNDSIPQEDFTPDVYRVFLNNLCPRPEIDNIFSEFGAKSKPYLTVDQMMDFINLKQRDPRLNEILYPPLKQEQVQVLIEKYEPNSSLAKKGQMSVDGFMRYLSGEENGVVSPEKLDLNEDMSQPLSHYFINSSHNTYLTAGQLAGNSSVEMYRQVLLSGCRCVELDCWKGRTAEEEPVITHGFTMTTEISFKEVIEAIAECAFKTSPFPILLSFENHVDSPKQQAKMAEYCRLIFGDALLMEPLEKYPLESGVPLPSPMDLMYKILVKNKKKSHKSSEGSGKKKLSEQASNTYSDSSSVFEPSSPGAGEADTESDDDDDDDDCKKSSMDEGTAGSEAMATEEMSNLVNYIQPVKFESFEISKKRNKSFEMSSFVETKGLEQLTKSPVEFVEYNKMQLSRIYPKGTRVDSSNYMPQLFWNAGCQMVALNFQTVDLAMQINMGMYEYNGKSGYRLKPEFMRRPDKHFDPFTEGIVDGIVANTLSVKIISGQFLSDKKVGTYVEVDMFGLPVDTRRKAFKTKTSQGNAVNPVWEEEPIVFKKVVLPSLACLRIAAYEEGGKFIGHRILPVQAIRPGYHYICLRNERNQPLTLPAVFVYIEVKDYVPDTYADVIEALSNPIRYVNLMEQRAKQLAALTLEDEEEVKKEADPGETSSEAPSETRTTPAENGVNHTASLAPKPPSQAPHSQPAPGSVKAPAKTEDLIQSVLTEVEAQTIEELKQQKSFVKLQKKHYKEMKDLVKRHHKKTTELIKEHTTKYNEIQNDYLRRRAALEKSAKKDSKKKSEPSSPDHGSSAIEQDLAALDAEMTQKLIDLKDKQQQQLLNLRQEQYYSEKYQKREHIKLLIQKLTDVAEECQNNQLKKLKEICEKEKKELKKKMDKKRQEKITEAKSKDKSQMEEEKTEMIRSYIQEVVQYIKRLEEAQSKRQEKLVEKHNEIRQQILDEKPKLQTELEQEYQDKFKRLPLEILEFVQEAMKGKISEDSNHGSAPPSLASDAAKVNLKSPSSEEIERENPGREFDTPL

- binding [2]: no binding
B4: FLAG-Snap91 (protein, UniProt Q61548 1-901)
chain: MSGQTLTDRIAAAQYSVTGSAVARAVCKATTHEVMGPKKKHLDYLIQATNETNVNIPQMADTLFERATNSSWVVVFKALVTTHHLMVHGNERFIQYLASRNTLFNLSNFLDKSGSHGYDMSTFIRRYSRYLNEKAFSYRQMAFDFARVKKGADGVMRTMVPEKLLKSMPILQGQIDALLEFDVHPNELTNGVINAAFMLLFKDLIKLFACYNDGVINLLEKFFEMKKGQCKDALEIYKRFLTRMTRVSEFLKVAEQVGIDKGDIPDLTQAPSSLMETLEQHLNTLEGKKPGNNEGSGAPSPLSKSSPATTVTSPNSTPAKTIDTSPPVDIFATASAAAPVSSAKPSSDLLDLQPDFSGAAAGAAAPVVPPSGGATAWGDLLGEDSLAALSSVPCEAPISDPFAPEPSPPTTTTEPASASASTTTAVTAVTTEVDLFGDAFAASPGEAPAASEGATAPATPAPVAAALDACSGNDPFAPSEGSAEAAPELDLFAMKPPETSAPVVTPTASTAPPVPATAPSPAPTAVAATAATTTAAAAATTTATTSAAAATTAAAPPALDIFGDLFDSAPEVAAAPKPDAAPSIDLFGTDAFSSPPRGASPVPESSLTADLLSVDAFAAPSPASTASPAKAESSGVIDLFGDAFGSGASETQPAPQAVSSSSASADLLAGFGGSFMAPSTTPVTPAQNNLLQPSFEAAFGTTPSTSSSSSFDPSVFDGLGDLLMPTMAPSGQPAPVSMVPPSPAMAASKGLGSDLDSSLASLVGNLGISGTTSKKGDLQWNAGEKKLTGGANWQPKVTPATWSAGVPPQGTVPPTSSVPPGAGAPSVGQPGAGFGMPPSGTGMTMMSQQPVMFAQPMMRPPFGAAAVPGTQLSPSPTPATQSPKKPPAKDPLADLNIKDFL
